According to patent US20250270341A1 (Alector, published 2025):

T1: Full length human CD98hc on CHO cells (human)
T1 construct: CHO cells stably overexpressing it; also called CHO-human CD98hc; CHO-huCD98hc
T1 chain: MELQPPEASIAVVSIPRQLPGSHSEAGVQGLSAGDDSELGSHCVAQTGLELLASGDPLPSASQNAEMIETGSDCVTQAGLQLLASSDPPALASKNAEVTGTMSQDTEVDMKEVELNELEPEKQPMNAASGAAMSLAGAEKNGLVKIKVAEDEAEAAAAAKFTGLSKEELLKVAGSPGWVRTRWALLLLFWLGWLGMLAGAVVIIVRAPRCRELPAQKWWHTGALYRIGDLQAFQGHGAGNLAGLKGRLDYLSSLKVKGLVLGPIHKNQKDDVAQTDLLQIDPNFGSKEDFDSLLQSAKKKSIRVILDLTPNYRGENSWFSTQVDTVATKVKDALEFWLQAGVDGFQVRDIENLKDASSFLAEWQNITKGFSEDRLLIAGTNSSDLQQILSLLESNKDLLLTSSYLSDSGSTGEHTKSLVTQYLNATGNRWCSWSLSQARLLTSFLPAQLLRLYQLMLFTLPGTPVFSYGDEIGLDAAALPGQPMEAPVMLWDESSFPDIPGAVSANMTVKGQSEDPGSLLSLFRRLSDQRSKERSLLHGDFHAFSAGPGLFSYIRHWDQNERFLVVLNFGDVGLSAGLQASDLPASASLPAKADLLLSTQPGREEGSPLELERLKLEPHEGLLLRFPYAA

T2: human CD98hc endogenously expressed on HCMEC/D3 cells (human)
T2 construct: human brain endothelial cell line
T2 chain: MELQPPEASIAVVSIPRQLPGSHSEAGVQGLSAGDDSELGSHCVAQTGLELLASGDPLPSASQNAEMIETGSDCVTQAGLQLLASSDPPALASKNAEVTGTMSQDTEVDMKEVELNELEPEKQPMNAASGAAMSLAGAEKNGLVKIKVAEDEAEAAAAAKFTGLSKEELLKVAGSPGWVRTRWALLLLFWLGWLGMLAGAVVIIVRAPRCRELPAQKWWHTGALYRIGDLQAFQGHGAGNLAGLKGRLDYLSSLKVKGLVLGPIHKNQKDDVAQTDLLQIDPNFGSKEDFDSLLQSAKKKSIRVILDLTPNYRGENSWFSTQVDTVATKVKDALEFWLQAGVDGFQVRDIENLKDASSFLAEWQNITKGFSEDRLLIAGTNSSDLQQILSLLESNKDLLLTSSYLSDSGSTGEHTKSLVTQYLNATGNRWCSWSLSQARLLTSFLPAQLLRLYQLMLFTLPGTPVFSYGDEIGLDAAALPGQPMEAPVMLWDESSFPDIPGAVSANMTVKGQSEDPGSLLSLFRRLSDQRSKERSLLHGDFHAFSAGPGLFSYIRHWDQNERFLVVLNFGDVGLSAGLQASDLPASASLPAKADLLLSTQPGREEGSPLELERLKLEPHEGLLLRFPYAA


Assays:
[1] = molecular target: T1, Full length human CD98hc on CHO cells; assay: FACS
Description: (§1) Purified 2+1 anti-CD98hc bispecific antibodies were screened for binding to human and cyno CD98hc by ELISA as in Example 6. Purified 2+1 bispecific antibodies were screened at concentrations ranging from 1-30 μg/mL. ELISA binding to human and cyno CD98 and control cyno TfR AVI-His tagged proteins as a ratio to secondary antibody alone were calculated, and values are listed in Table 10A. Purified 2+1 bispecific antibodies were also screened for their ability to bind CHO cells overexpressing human or mouse CD98hc or cells endogenously expressing human CD98hc by FACS. […] Data was acquired on a FACS Canto (BD Biosciences). The ratio of binding to endogenously expressing human brain endothelial cells over secondary only is also in Table 12B. 47 out of 94 of the 2+1 anti-CD98hc bispecific antibodies screened were positive by ELISA with signal at least 5-fold higher than the secondary alone, and 16 were ELISA and FACS positive which FACS binding increased 3-fold or more compared to non-expressing cells.

[2] = molecular target: T2, human CD98hc endogenously expressed on …; assay: FACS
Description: as §1

Row | Binder | MFI ratio CHO huCD98/CHO parental [1] | MFI ratio HCMEC/2nd ab only [2]
1 | CD98hc.05.006 (2+1 bispecific antibody) (bispecific antibody) heavy 1: EVRLLESGGGLVQPGGSLRLSCAASGFTFSNYAMGWVRQAPGKGLEWVSAISGSGGSTYYADSVKGRFTTSRDDSKNALYLQMNSLRAEDTAVYYCARGGPGWYAADVWGQGTTVTVSSASTKGPSVFPLAPSSKSTSGGTAALGCLVKDYFPEPVTVSWNSGALTSGVHTFPAVLQSSGLYSLSSVVTVPSSSLGTQTYICNVNHKPSNTKVDKKV[here human IgG1 Fc with changes without letters]GGGGSGGGGSGGGGSEVKLVESGGNLVQPGGSLKLSCAASGFTFSGYSMSWVRQTPDKRLEWVAYIGNGGDSTYYPYTVKGRFTISRDNAKNTLYLQMNSLKSEDSAMYYCARQYVNYPFFDYWGQGTTLTVSSGGSEGKSSGSGSESKSTGGSDIVMSQSPSSLTVSVGAKIILGCKSSQSLLYSGNQKNYLAWYQQKPGQSPKLLIYWASTRESGVPDRFTGSGSGTDFTLTISSVKAEDVAVYYCQQYYTYPPAFGAGTKLEIK heavy 2: EVRLLESGGGLVQPGGSLRLSCAASGFTFSNYAMGWVRQAPGKGLEWVSAISGSGGSTYYADSVKGRFTTSRDDSKNALYLQMNSLRAEDTAVYYCARGGPGWYAADVWGQGTTVTVSS[here human IgG1 constant region with changes without letters] light: DIQMTQSPSSLSASVGDRVTITCRASQSISSYLNWYQQKPGKAPKLLIYAASSLQSGVPSRFSGSGSGTDFTLTISSLQPEDFATYYCQQADLPAFAFGGGTKVEIKRTVAAPSVFIFPPSDEQLKSGTASVVCLLNNFYPREAKVQWKVDNALQSGNSQESVTEQDSKDSTYSLSSTLTLSKADYEKHKVYACEVTHQGLSSPVTKSFNRGEC | 31 | 603
2 | CD98hc.05.007 (2+1 bispecific antibody) (bispecific antibody) heavy 1: EVRLLESGGGLVQPGGSLRLSCAASGFTFSNYAMGWVRQAPGKGLEWVSAISGSGGSTYYADSVKGRFTTSRDDSKNALYLQMNSLRAEDTAVYYCARGGPGWYAADVWGQGTTVTVSSASTKGPSVFPLAPSSKSTSGGTAALGCLVKDYFPEPVTVSWNSGALTSGVHTFPAVLQSSGLYSLSSVVTVPSSSLGTQTYICNVNHKPSNTKVDKKV[here human IgG1 Fc with changes without letters]GGGGSGGGGSGGGGSDVKLVESGGDLVKPGGSLKLSCAASGFTFSSYSMSWVRQTPEKRLEWVATITSGGSYTYFPDSVKGRFTISRDNAKNTLYLQVSNLKSEDTAMYYCTRGPSFGNYLDYWGQGTTLTVSSGGSEGKSSGSGSESKSTGGSDILMTQSPSSMSASLGDTVSITCHASQGISSNIGWLQQKPGKSFKGLIYRGTNLEDGVPSRFSGSGSGADYSLTISSLESEDFADYYCVQYAHFPYTFGGGTKLEIK heavy 2: EVRLLESGGGLVQPGGSLRLSCAASGFTFSNYAMGWVRQAPGKGLEWVSAISGSGGSTYYADSVKGRFTTSRDDSKNALYLQMNSLRAEDTAVYYCARGGPGWYAADVWGQGTTVTVSS[here human IgG1 constant region with changes without letters] light: DIQMTQSPSSLSASVGDRVTITCRASQSISSYLNWYQQKPGKAPKLLIYAASSLQSGVPSRFSGSGSGTDFTLTISSLQPEDFATYYCQQADLPAFAFGGGTKVEIKRTVAAPSVFIFPPSDEQLKSGTASVVCLLNNFYPREAKVQWKVDNALQSGNSQESVTEQDSKDSTYSLSSTLTLSKADYEKHKVYACEVTHQGLSSPVTKSFNRGEC | 24 | 403

Continued, values first:

Row | MFI ratio CHO huCD98/CHO parental [1] | MFI ratio HCMEC/2nd ab only [2] | Binder
3 | 24 | 272 | CD98hc.05.052 (2+1 bispecific antibody) (bispecific antibody) heavy 1: EVRLLESGGGLVQPGGSLRLSCAASGFTFSNYAMGWVRQAPGKGLEWVSAISGSGGSTYYADSVKGRFTTSRDDSKNALYLQMNSLRAEDTAVYYCARGGPGWYAADVWGQGTTVTVSSASTKGPSVFPLAPSSKSTSGGTAALGCLVKDYFPEPVTVSWNSGALTSGVHTFPAVLQSSGLYSLSSVVTVPSSSLGTQTYICNVNHKPSNTKVDKKV[here human IgG1 Fc with changes without letters]GGGGSGGGGSGGGGSDMQLQESGPGLVKPSQSLSLTCTVTGYSITSDYAWNWIRQFPGNKLEWMGFISYSGTTSYTPSLKRRISITRDTSKNQFFLRLNSVTPEDTATYYCAKSAFYGNVWFAYWGQGTLVTVSSGGSEGKSSGSGSESKSTGGSQFVLTQSPAIMSASPGEKVTISCSASSSVSYMFWYQQKPGSSPKPWISHTSNLASGVPARFSGSGSGTSYSLTISNMEAEDAATYYCQQFHDYPWTFGGGTKLEIK heavy 2: EVRLLESGGGLVQPGGSLRLSCAASGFTFSNYAMGWVRQAPGKGLEWVSAISGSGGSTYYADSVKGRFTTSRDDSKNALYLQMNSLRAEDTAVYYCARGGPGWYAADVWGQGTTVTVSS[here human IgG1 constant region with changes without letters] light: DIQMTQSPSSLSASVGDRVTITCRASQSISSYLNWYQQKPGKAPKLLIYAASSLQSGVPSRFSGSGSGTDFTLTISSLQPEDFATYYCQQADLPAFAFGGGTKVEIKRTVAAPSVFIFPPSDEQLKSGTASVVCLLNNFYPREAKVQWKVDNALQSGNSQESVTEQDSKDSTYSLSSTLTLSKADYEKHKVYACEVTHQGLSSPVTKSFNRGEC
4 | 30 | 316 | CD98hc.05.126 (2+1 bispecific antibody) (bispecific antibody) heavy 1: EVRLLESGGGLVQPGGSLRLSCAASGFTFSNYAMGWVRQAPGKGLEWVSAISGSGGSTYYADSVKGRFTTSRDDSKNALYLQMNSLRAEDTAVYYCARGGPGWYAADVWGQGTTVTVSSASTKGPSVFPLAPSSKSTSGGTAALGCLVKDYFPEPVTVSWNSGALTSGVHTFPAVLQSSGLYSLSSVVTVPSSSLGTQTYICNVNHKPSNTKVDKKV[here human IgG1 Fc with changes without letters]GGGGSGGGGSGGGGSEVKLVESGGNLVQPGGSLKLSCAASGFTFSGYPMSWVRRTPDKRLEWVAYIGSGGDSTYYPYAVKGRFTISRDNAKNTLYLQMNSLKSEDSAMYYCARQYDNYPFFDYWGQGTTLTVSSGGSEGKSSGSGSESKSTGGSDFVMSQSPSSLTVSVGAKVIMSCKSSQSLLYSGNQKNYLAWYQQKPGQSPKLLIYWASTRESGVPDRFTGSGSGTDFTLTISSVKAEDLAVYYCQQYYTYPPTFGAGTKLEIK heavy 2: EVRLLESGGGLVQPGGSLRLSCAASGFTFSNYAMGWVRQAPGKGLEWVSAISGSGGSTYYADSVKGRFTTSRDDSKNALYLQMNSLRAEDTAVYYCARGGPGWYAADVWGQGTTVTVSS[here human IgG1 constant region with changes without letters] light: DIQMTQSPSSLSASVGDRVTITCRASQSISSYLNWYQQKPGKAPKLLIYAASSLQSGVPSRFSGSGSGTDFTLTISSLQPEDFATYYCQQADLPAFAFGGGTKVEIKRTVAAPSVFIFPPSDEQLKSGTASVVCLLNNFYPREAKVQWKVDNALQSGNSQESVTEQDSKDSTYSLSSTLTLSKADYEKHKVYACEVTHQGLSSPVTKSFNRGEC
